This note sets out measurements from PMC5700166.

Common to all, as to assay: protein-binding microarray (PBM)
What all share (conditions): PBM: ~300 nM protein, 6 mM HEPES pH 7.8, 80 mM KCl, 0.5 mM EDTA, 0.5 mM EGTA, 6% glycerol, 35 ng/ul poly-dIdC, 1% milk, 1 h, room temperature; Ap Aiptasia and Nv Nematostella (sea anemones) / Co Capsaspora / Aq Amphimedon (sponge) / Dm Drosophila / Hu human; RHD is the Rel homology domain; high values mean tight binding; most listed sequences are background and not binding sites; double strand, one strand shown

For one assay, the target named is T1, GST-Ap-NF-kB RHD (UniProt A0A913YAJ5).
T1 sequence: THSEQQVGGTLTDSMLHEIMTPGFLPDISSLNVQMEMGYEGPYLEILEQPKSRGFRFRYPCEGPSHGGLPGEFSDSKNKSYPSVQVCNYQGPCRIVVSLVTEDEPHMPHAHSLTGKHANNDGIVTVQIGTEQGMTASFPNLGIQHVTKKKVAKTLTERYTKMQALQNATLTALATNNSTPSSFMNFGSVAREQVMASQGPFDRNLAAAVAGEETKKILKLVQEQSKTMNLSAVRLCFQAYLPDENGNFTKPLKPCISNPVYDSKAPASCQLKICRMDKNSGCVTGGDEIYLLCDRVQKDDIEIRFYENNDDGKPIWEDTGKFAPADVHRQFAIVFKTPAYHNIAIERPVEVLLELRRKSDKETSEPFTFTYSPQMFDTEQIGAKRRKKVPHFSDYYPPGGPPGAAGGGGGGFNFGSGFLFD

Assay [1] deals with T2, GST-Nv-NF-kB (Cys allele) (UniProt E5G601).
T2 sequence: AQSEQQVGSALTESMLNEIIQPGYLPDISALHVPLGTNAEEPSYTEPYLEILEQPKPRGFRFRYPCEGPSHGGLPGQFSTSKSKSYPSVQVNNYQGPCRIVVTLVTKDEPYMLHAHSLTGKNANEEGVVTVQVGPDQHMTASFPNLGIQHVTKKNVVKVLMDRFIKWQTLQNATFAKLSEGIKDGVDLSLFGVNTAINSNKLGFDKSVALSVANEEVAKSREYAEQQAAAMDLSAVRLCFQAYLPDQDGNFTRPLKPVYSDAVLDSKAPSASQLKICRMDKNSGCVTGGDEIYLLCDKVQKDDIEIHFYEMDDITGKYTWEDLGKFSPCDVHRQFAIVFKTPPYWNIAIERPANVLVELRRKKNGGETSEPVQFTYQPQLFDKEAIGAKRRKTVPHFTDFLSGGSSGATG

The target of a further assay is T3, GST-Co-NF-kB (UniProt F1ARL5).
T3 sequence: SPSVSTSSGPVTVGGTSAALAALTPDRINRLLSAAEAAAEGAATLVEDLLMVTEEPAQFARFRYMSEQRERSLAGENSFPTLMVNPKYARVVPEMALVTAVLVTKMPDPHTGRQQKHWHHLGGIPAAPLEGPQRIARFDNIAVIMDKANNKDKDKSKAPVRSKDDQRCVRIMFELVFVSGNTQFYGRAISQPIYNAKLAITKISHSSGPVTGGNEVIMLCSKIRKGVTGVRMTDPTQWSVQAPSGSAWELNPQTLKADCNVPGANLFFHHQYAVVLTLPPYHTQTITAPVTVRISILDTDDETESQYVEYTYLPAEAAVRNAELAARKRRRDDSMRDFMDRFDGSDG

The next assay concerns the target T4, GST-Dm-Relish (UniProt Q94527).
T4 sequence: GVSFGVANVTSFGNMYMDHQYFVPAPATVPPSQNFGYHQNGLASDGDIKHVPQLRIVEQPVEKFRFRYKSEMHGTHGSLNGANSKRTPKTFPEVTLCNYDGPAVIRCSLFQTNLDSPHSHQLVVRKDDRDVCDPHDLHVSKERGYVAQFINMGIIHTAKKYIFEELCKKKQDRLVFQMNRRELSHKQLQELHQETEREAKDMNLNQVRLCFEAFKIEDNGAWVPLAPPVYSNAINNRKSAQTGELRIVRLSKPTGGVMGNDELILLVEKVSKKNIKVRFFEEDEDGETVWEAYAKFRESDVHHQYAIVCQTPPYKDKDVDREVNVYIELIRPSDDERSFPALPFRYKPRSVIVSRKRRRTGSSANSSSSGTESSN

The target of a further assay is T5, GST-Aq-NF-kB (UniProt A9Y5G7).
T5 sequence: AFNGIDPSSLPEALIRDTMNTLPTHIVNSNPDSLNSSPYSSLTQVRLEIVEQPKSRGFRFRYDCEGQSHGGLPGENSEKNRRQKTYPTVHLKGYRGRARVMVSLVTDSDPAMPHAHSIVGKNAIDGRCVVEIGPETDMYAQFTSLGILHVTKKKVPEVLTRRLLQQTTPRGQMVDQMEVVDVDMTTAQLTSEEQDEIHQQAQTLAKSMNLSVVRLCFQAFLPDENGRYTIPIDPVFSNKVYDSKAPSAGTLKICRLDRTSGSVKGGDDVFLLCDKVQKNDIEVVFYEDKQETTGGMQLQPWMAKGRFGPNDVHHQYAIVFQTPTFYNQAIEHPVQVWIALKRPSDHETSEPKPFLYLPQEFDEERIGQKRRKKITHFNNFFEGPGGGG

Only a part is listed here, and it is no random draw. The list includes weakly bound sequences.

Consider “CCGATTAACATCACGAAGCTCATTGATGTTAATCGGGTCTTGATTCGCTTGACGCTGCTG”, for which the binding signal in the assay with GST-Ap-NF-kB RHD was -0.516 z-score; in assay [1], -0.666 z-score; in the assay with GST-Co-NF-kB it was -0.674 z-score; with GST-Dm-Relish it was -0.818 z-score; in the assay with GST-Aq-NF-kB, -0.511 z-score.

Regarding “CCGATTAACATCAGCCGGTTCGATGATGTTAATCGGGTCTTGATTCGCTTGACGCTGCTG”, the binding signal with GST-Ap-NF-kB RHD was -0.138 z-score; in assay [1] it was -0.791 z-score; in the assay with GST-Co-NF-kB, -1.03 z-score; in the assay with GST-Dm-Relish, -0.817 z-score; with GST-Aq-NF-kB, -0.411 z-score.

As for “CCGATTAACATCACAGACTCAGTTGATGTTAATCGGGTCTTGATTCGCTTGACGCTGCTG”, the binding signal was -0.34 z-score with GST-Ap-NF-kB RHD; -0.0902 z-score in assay [1]; -0.498 z-score in the assay with GST-Co-NF-kB; -0.156 z-score with GST-Dm-Relish; -0.573 z-score in the assay with GST-Aq-NF-kB.

With “CCGATTAACATCAAAATTCCCCTTGATGTTAATCGGGTCTTGATTCGCTTGACGCTGCTG”, the binding signal with GST-Ap-NF-kB RHD stood at 10.1 z-score; in assay [1], 12.5 z-score; with GST-Co-NF-kB, 7.63 z-score; with GST-Dm-Relish, 9.78 z-score; in the assay with GST-Aq-NF-kB, 9.63 z-score.

Take “CCGATTAACATCATACAACTCCATGATGTTAATCGGGTCTTGATTCGCTTGACGCTGCTG”: the binding signal with GST-Ap-NF-kB RHD was -0.236 z-score; in assay [1] it was -0.477 z-score; in the assay with GST-Co-NF-kB, 0.229 z-score; with GST-Dm-Relish, -0.749 z-score; with GST-Aq-NF-kB, -0.109 z-score.

As to “CCGATTAACATCACATCTAGGAGTGATGTTAATCGGGTCTTGATTCGCTTGACGCTGCTG”, the binding signal with GST-Ap-NF-kB RHD was -1.09 z-score; in assay [1] it was -0.439 z-score; in the assay with GST-Co-NF-kB, -0.777 z-score; in the assay with GST-Dm-Relish, 0.333 z-score; with GST-Aq-NF-kB, -0.605 z-score.

Take “CCGATTAACATCAAATCATGATCTGATGTTAATCGGGTCTTGATTCGCTTGACGCTGCTG”: the binding signal with GST-Ap-NF-kB RHD is -0.586 z-score; in assay [1] it was -0.831 z-score; with GST-Co-NF-kB, -2.33 z-score; in the assay with GST-Dm-Relish, -1.31 z-score; in the assay with GST-Aq-NF-kB, -0.604 z-score.

Consider “CCGATTAACATCAATTTCGCGTTTGATGTTAATCGGGTCTTGATTCGCTTGACGCTGCTG”, for which the binding signal in the assay with GST-Ap-NF-kB RHD is -0.647 z-score; in assay [1] it was -0.497 z-score; with GST-Co-NF-kB, -0.247 z-score; with GST-Dm-Relish, -0.359 z-score; with GST-Aq-NF-kB, -0.589 z-score.

For the sequence “CCGATTAACATCACTGAAATTCCTGATGTTAATCGGGTCTTGATTCGCTTGACGCTGCTG”, the binding signal came out at 0.248 z-score in the assay with GST-Ap-NF-kB RHD; 0.462 z-score in assay [1]; 0.104 z-score with GST-Co-NF-kB; 0.553 z-score with GST-Dm-Relish; 0.585 z-score with GST-Aq-NF-kB.

Turning to “CCGATTAACATCATTCCGGAAAATGATGTTAATCGGGTCTTGATTCGCTTGACGCTGCTG”, the binding signal with GST-Ap-NF-kB RHD is 0.0281 z-score; in assay [1] it was 0.694 z-score; in the assay with GST-Co-NF-kB it was -0.832 z-score; in the assay with GST-Dm-Relish, -0.154 z-score; with GST-Aq-NF-kB it was 0.636 z-score.

“CCGATTAACATCATAAGTCCGAATGATGTTAATCGGGTCTTGATTCGCTTGACGCTGCTG”: the binding signal in the assay with GST-Ap-NF-kB RHD is -0.323 z-score; in assay [1], -0.649 z-score; with GST-Co-NF-kB, -0.289 z-score; in the assay with GST-Dm-Relish, -0.525 z-score; with GST-Aq-NF-kB, -0.146 z-score.

For “CCGATTAACATCAGAAATTCCACTGATGTTAATCGGGTCTTGATTCGCTTGACGCTGCTG”, the binding signal was 0.333 z-score in the assay with GST-Ap-NF-kB RHD; -0.00805 z-score in assay [1]; -0.163 z-score in the assay with GST-Co-NF-kB; 0.472 z-score with GST-Dm-Relish; 0.719 z-score in the assay with GST-Aq-NF-kB.
